Here are results for five molecules from PMC7041945, “Misfolded proteins bind and activate death receptor 5 to trigger apoptosis during unresolved endoplasmic reticulum stress” (eLife, 2020).

Chains of the proteins cited; added tags and fusions are not shown. Residues count along the entry.
UniProt O14763, residues 56-440: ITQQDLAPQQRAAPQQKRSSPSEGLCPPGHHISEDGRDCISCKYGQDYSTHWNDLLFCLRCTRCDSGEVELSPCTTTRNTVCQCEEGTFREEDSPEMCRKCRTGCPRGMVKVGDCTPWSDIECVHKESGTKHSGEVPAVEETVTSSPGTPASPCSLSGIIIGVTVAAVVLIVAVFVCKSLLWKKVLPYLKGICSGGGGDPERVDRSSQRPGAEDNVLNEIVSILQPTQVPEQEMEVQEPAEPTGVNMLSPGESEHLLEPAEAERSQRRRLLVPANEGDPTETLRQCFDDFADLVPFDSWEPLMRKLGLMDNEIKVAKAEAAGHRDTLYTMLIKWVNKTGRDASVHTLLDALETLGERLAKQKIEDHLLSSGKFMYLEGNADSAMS
UniProt P19438, residues 30-211: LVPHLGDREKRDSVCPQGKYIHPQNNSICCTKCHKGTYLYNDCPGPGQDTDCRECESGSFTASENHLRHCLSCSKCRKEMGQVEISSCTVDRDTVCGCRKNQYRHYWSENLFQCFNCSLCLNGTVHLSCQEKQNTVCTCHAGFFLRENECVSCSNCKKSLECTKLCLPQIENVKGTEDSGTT

The target in assay [1] is death receptor 5 (DR5), endogenous (human (endogenous in HCT116)) (UniProt O14763). Put plainly: co-IP; immunoprecipitation of DR5 with anti-DR5 mAb 5C7-conjugated agarose beads from lysates of HCT116 transfected with MPZ-GFP or the empty vector; blotted for DR5, MPZ-GFP, FADD.
Assay [2] has the same target. Put plainly: SEC; lysates of HCT116 transfected with MPZ-GFP or cytosolic GFP (24 hr) on SuperDex200 10/300 GL in 30 mM HEPES pH 7.2, 150 mM NaCl, 1% Triton X-100; pooled fractions blotted for DR5 and GFP.
The target in assay [3] is FLAG-tagged DR5 long isoform ECD (human). Put plainly: SEC; 25 μM recombinant DR5L ECD alone or pre-incubated overnight at 4°C with 100 or 400 μM fluorescein-conjugated peptide or 25 μM TRAIL; SuperDex200 10/300 GL, 30 mM HEPES pH 7.2, 150 mM NaCl; fractions on SDS-PAGE, fluorescence scan and Coomassie; both purified.
Assay [4] has as its target AlexaFluor647-labeled DR5 long isoform ECD (human). Put plainly: other fluorescence titration; fluorescence quenching of 200 nM AlexaFluor647-labeled ECD by a two-fold dilution series of unlabeled peptide; 20 mM HEPES pH 7.2, 100 mM KOAc, 0.1% Tween-20; 25°C, capillary scan on Monolith NT.115; apparent, Hill fit; both purified.
For assay [5], the target named is AlexaFluor647-labeled TNFR1 ECD (human). The description is as above.
Another assay has as its target Fc-tagged TNFR1 ECD (UniProt P19438). Put plainly: pull-down; Fc-tagged ECD held on Dynabeads Protein G, incubated with peptide in 20 mM HEPES pH 7.2, 100 mM KOAc, 0.2% Tween-20, 1 hr at RT; Coomassie-stained SDS-PAGE; both purified.

Results are given in words; binding and its absence hold for the method and conditions named. For part of these data: Binding seen in cells or lysates may run through a third protein. Some results given as binding are weak or reduced against the parent protein; the word gives no strength. For part of these data: Tags and fused reporters may be left off the sequences shown.

B1: myelin protein zero (MPZ) tagged with a C-terminal monomeric EGFP (protein, UniProt P25189 30-248)
chain: IVVYTDREVHGAVGSRVTLHCSFWSSEWVSDDISFTWRYQPEGGRDAISIFHYAKGQPYIDEVGTFKERIQWVGDPRWKDGSIVIHNLDYSDNGTFTCDVKNPPDIVGKTSQVTLYVFEKVPTRYGVVLGAVIGGVLGVVLLLLLLFYVVRYCWLRRQAALQRRLSAMEKGKLHKPGKDASKRGRQTPVLYAMLDHSRSTKAVSEKKAKGLGESRKDKK
Consider B1, for which the binding result in assay [1] and in assay [2] was “binds” throughout.

B2: fluorescein-conjugated MPZ-ecto^Tyr→Glu peptide (peptide)
peptide: FTWREQPEGGRDAISIFHEA
modifications: fluorescein-conjugated
On to B2, for which the binding entry in assay [3] is “no binding (tested: 100 μM peptide, 25 μM DR5L ECD)”.

B3: MPZ-ecto^Tyr→Glu peptide (peptide)
peptide: FTWREQPEGGRDAISIFHEA
Take B3: the binding entry in assay [4] is recorded as “no binding”.

B4: MPZ-ecto peptide (peptide)
peptide: FTWRYQPEGGRDAISIFHYA
B4: the binding entry in assay [5] was “no binding”.

B5: MPZ-ecto^VD peptide (peptide)
peptide: VSDDISFTWRYQPEGGRD
For the molecule B5, in the assay with Fc-tagged TNFR1 ECD, the binding result is “no binding (tested: 100 μM peptide)”.
